# Measured values from PubChem BioAssay (NCATS).
# “And” between values parts separate entries of the source, which are not always exact repeats. Equal values may be shown once. The shares of active, inactive and inconclusive entries below differ from those in the screen. Potencies of inconclusive entries are doubtful fits and often do not repeat. The source made the active and inactive calls. Calls follow the shape of the dose curve; as a rule, active = well fitted curve in the direction sought with a large enough effect; inconclusive = small, poorly fitted or top-dose-only effect, or another doubt; inactive = no such curve, though single readings can be large; an effect the other way counts as inactive or inconclusive.
# Experiments:
# [1] = qHTS of pediatric cancer cell lines to identify multiple opportunities for drug repurposing: Primary screen for A673 cells (AID 1347092); details: A673 Ewing sarcoma viability, CellTiter-Glo ATP luminescence, 48 h; activity change, negative = cytotoxic: at 46 µM (top of the series) unless noted; also: nearly all actives have a fitted effect of over 45% in size; as to activity change, negative = cytotoxic: % is scaled to controls: 0 for no effect and ±100 for the full control effect
# How it was run: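 Cell viability of A673 measured by CellTiter-Glo ATP luminescence after 48 hours compound exposure. Dilution series spanned 0.78 nM to 46 µM (MIPE, 11-point) or 0.59 nM to 46 µM (NPC, 8-point); bortezomib 2.3 uM positive control.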
# [2] = qHTS of pediatric cancer cell lines to identify multiple opportunities for drug repurposing: Primary screen for BT-37 cells (AID 1347094);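 as to activity change, negative = cytotoxic: plate controls were DMSO for no effect and bortezomib for full effect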
# How it was run: (§1)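 Cells plated at 500-1,000/well in growth medium, compounds added after 5 h. MIPE tested at 11 points (from 0.78 nM), NPC at 8 points (from 0.59 nM). CellTiter-Glo luminescence after 48 h; concentration-response curves from primary screen.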
# [3] = qHTS of pediatric cancer cell lines to identify multiple opportunities for drug repurposing: Primary screen for BT-12 cells (AID 1347101); also: nearly all actives have a fitted effect of over 25% in size;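 as to activity change, negative = cytotoxic: plate controls were DMSO for no effect and bortezomib positive control for full effect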
# How it was run: (§2)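 Cells (500-1,000/well) rested 5 h, then received compounds for 48 h; metabolically active cells were measured by CellTiter-Glo luminescence. Final concentrations spanned up to 46 µM (MIPE, 11-point) or 0.59 nM-46 µM (NPC, 8-point) in primary screens, 11-point in follow-ups.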
# [4] = qHTS of pediatric cancer cell lines to identify multiple opportunities for drug repurposing: Primary screen for NB-EBc1 cells (AID 1347095);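 as to activity change, negative = cytotoxic: plate controls were DMSO neutral control for no effect and bortezomib for full effect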
# How it was run: as §1
# [5] = qHTS of pediatric cancer cell lines to identify multiple opportunities for drug repurposing: Primary screen for SK-N-SH cells (AID 1347098); also: nearly all actives have a fitted effect of over 65% in size;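 as to activity change, negative = cytotoxic: DMSO served as neutral control and bortezomib at 2.3 µM as positive control; % is scaled to controls: 0 for no effect and ±100 for the full control effect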
# How it was run: as §2
# [6] = qHTS of pediatric cancer cell lines to identify multiple opportunities for drug repurposing: Primary screen for SK-N-MC cells (AID 1347093); details: SK-N-MC viability, CellTiter-Glo luminescence, 48 h; activity change, negative = cytotoxic: at 46 µM (top of the series)
# How it was run: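 Metabolically active cells were quantified by ATP-dependent luminescence (CellTiter-Glo, 15 min at room temperature) following 48 h treatment. Cells had been plated at 500-1,000 per well and settled for 5 h beforehand.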
# [7] = qHTS of pediatric cancer cell lines to identify multiple opportunities for drug repurposing: Primary screen for NB1643 cells (AID 1347099); also: nearly all actives have a fitted effect of over 50% in size;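 as to activity change, negative = cytotoxic: plate controls were DMSO neutral control for no effect and bortezomib positive control for full effect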
# How it was run: as §1
# [8] = qHTS of pediatric cancer cell lines to identify multiple opportunities for drug repurposing: Primary screen for Saos-2 cells (AID 1347097); details: Saos-2 viability, CellTiter-Glo ATP luminescence, 48 h; activity change, negative = cytotoxic: at 46 µM (top of the series); also: nearly all actives have a fitted effect of over 40% in size; as to activity change, negative = cytotoxic: % is scaled to controls: 0 for no effect and ±100 for the full control effect
# How it was run: as §1
# [9] = qHTS of pediatric cancer cell lines to identify multiple opportunities for drug repurposing: Primary screen for LAN-5 cells (AID 1347100); details: LAN-5 neuroblastoma viability, CellTiter-Glo luminescence, 48 h; activity change, negative = cytotoxic: at 46 µM (top of the series);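 as to activity change, negative = cytotoxic: plate controls were DMSO neutral control for no effect and bortezomib positive control for full effect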
# How it was run: (§3)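 Cells (500-1,000/well) in growth media were settled 5 h at 37 degrees C, then given compounds for 48 h. Viability was read as CellTiter-Glo luminescence. Primary runs used MIPE at 11 points (0.78 nM-46 µM) and NPC at 8 points (0.59 nM-46 µM); follow-ups used 11 points.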
# [10] = qHTS of pediatric cancer cell lines to identify multiple opportunities for drug repurposing: Primary screen for U-2 OS cells (AID 1347096); also: nearly all actives have a fitted effect of over 50% in size;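 as to activity change, negative = cytotoxic: plate controls were DMSO wells for no effect and bortezomib positive control wells for full effect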
# How it was run: as §3
# Potency is read from the fitted curve at half-maximal effect; tags tell the direction and shape of the fitted curve.
smiles,measurement,setting,value
Clc1ccccc1-c1nc(-c2ccncc2)no1,Potency,[1],inactive
same,Potency,[2],inactive
same,Potency,[3],"inconclusive: 24.6 µM [cytotoxic, partial curve, poor fit]"
Oc1cc(O)cc(C=Cc2ccc(O)c(O)c2)c1,Potency,[1],active: 18.7 µM
same,Potency,[2],"inconclusive: 21.7 µM [cytotoxic, partial curve]"
same,Potency,[4],active: 4.18 µM
same,Potency,[5],"inconclusive: 24.1 µM [cytotoxic, partial curve]"
c1ccc2[nH]c(-c3cscn3)nc2c1,Potency,[1],"inconclusive: 14.8 µM [cytotoxic, partial curve]"
same,Potency,[4],inactive
CCCc1nc2c(C)cc(-c3nc4ccccc4n3C)cc2n1Cc1ccc(-c2ccccc2C(=O)O)cc1,Potency,[1],"inconclusive: 29.6 µM [cytotoxic, single point]"
same,Potency,[6],"inconclusive: 21.1 µM [cytotoxic, partial curve, poor fit]"
same,Potency,[7],"inconclusive: 23.5 µM [cytotoxic, partial curve]"
CCN1/C(=C/C=C/c2sc3ccccc3[n+]2CC)Sc2ccccc21,Potency,[1],active: 0.58 µM
same,Potency,[2],active: 1.35 µM
same,Potency,[4],"inconclusive: 14.6 µM [cytotoxic, single point]"
same,Potency,[8],active: 0.92 µM
same,Potency,[7],active: 2.91 µM
same,Potency,[9],"inconclusive: 14.6 µM [cytotoxic, single point]"
O=C(O)c1ccccc1Nc1cccc(C(F)(F)F)c1,Potency,[1],inactive
same,Potency,[6],"inconclusive: 33.5 µM [cytotoxic, single point]"
same,Potency,[9],inactive
COc1cc2c(Oc3ccc(NC(=O)C4(C(=O)Nc5ccc(F)cc5)CC4)cc3F)ccnc2cc1OCCCN1CCOCC1,Potency,[1],active: 2.35 µM
same,Potency,[2],active: 27.3 µM
same,Potency,[10],active: 14.8 µM
same,Potency,[7],active: 6.62 µM
N#Cc1ccc(NC(=O)Nc2ccccc2Br)c2n[nH]nc12,Potency,[1],active: 23.5 µM
same,Potency,[2],"inconclusive: 13.7 µM [cytotoxic, partial curve]"
same,Potency,[8],inactive
same,Potency,[5],"inconclusive: 30.4 µM [cytotoxic, single point]"
same,Potency,[7],"inconclusive: 18.7 µM [cytotoxic, partial curve, poor fit]"
same,Potency,[3],"inconclusive: 27.3 µM [cytotoxic, partial curve, poor fit]"
O=C(N[C@@H](c1ccccc1)[C@@H]1CCCCN1)c1cccc(C(F)(F)F)c1Cl,Potency,[1],"inconclusive: 18.7 µM [cytotoxic, partial curve]"
same,Potency,[2],active: 19.3 µM
same,Potency,[8],inactive
same,Potency,[3],"inconclusive: 8.63 µM [cytotoxic, partial curve]"
Cc1ccc2nc(NCCN)c3ncc(C)n3c2c1,Potency,[1],active: 1.87 µM
same,Potency,[2],active: 24.3 µM
same,Potency,[10],"inconclusive: 23.5 µM [cytotoxic, single point]"
same,Potency,[8],active: 14.8 µM
same,Potency,[9],"inconclusive: 7.43 µM [cytotoxic, full curve]"
S=c1[nH]c2ccccc2s1,Potency,[1],active: 19.3 µM
same,Potency,[6],"inconclusive: 24.3 µM [cytotoxic, partial curve, poor fit]"
same,Potency,[7],"inconclusive: 34.4 µM [cytotoxic, single point]"
same,Potency,[3],inactive
COc1cc2c(cc1OC)CN(CCc1ccc(NC(=O)c3cc(OC)c(OC)cc3NC(=O)c3cnc4ccccc4c3)cc1)CC2,Potency,[1],"inconclusive: 23.5 µM [cytotoxic, partial curve]"
same,Potency,[2],"inconclusive: 10.9 µM [cytotoxic, partial curve, poor fit]"
same,Potency,[8],"inconclusive: 26.4 µM [cytotoxic, partial curve]"
same,Potency,[3],inactive
Cc1c(OCC(F)(F)F)ccnc1CS(=O)c1nc2ccccc2[nH]1 (stereo not drawn),Potency,[1],"inconclusive: 37.2 µM [cytotoxic, single point]"
same,Potency,[2],inactive
same,Potency,[4],"inconclusive: 29.6 µM [cytotoxic, single point]"
same,Potency,[7],"inconclusive: 9.35 µM [cytotoxic, full curve]"
same,Potency,[3],"inconclusive: 19.5 µM [cytotoxic, single point]"
O=C(Nc1ccc(OC(F)(F)F)cc1)c1sccc1NCc1ccnc2ccccc12,Potency,[1],"inconclusive: 14.8 µM [cytotoxic, partial curve, poor fit]"
same,Potency,[2],"inconclusive: 19.3 µM [cytotoxic, partial curve]"
same,Potency,[8],active: 18.7 µM
same,Potency,[7],"inconclusive: 26.4 µM [cytotoxic, partial curve]"
same,Potency,[9],"inconclusive: 23.5 µM [cytotoxic, partial curve]"
same,Potency,[3],"inconclusive: 27.3 µM [cytotoxic, partial curve]"
COc1cccc2c1C(=O)c1c(O)c3c(c(O)c1C2=O)C[C@@](O)(C(=O)CO)C[C@@H]3O[C@H]1C[C@H](N)[C@H](O[C@@H]2CCCCO2)[C@H](C)O1,Potency,[1],active: 1.06 µM
same,Potency,[2],active: 0.246 µM
same,Potency,[4],active: 0.075 µM
same,Potency,[10],"inconclusive: 16.8 µM [cytotoxic, single point]"
same,Potency,[8],active: 2.66 µM
same,Potency,[9],active: 0.266 µM
NC(=O)c1ccc(-c2nc(-c3ccc4c(c3)OCCO4)c(-c3ccccn3)[nH]2)cc1,Potency,[1],"inconclusive: 18.7 µM [cytotoxic, partial curve, poor fit]"
same,Potency,[2],"inconclusive: 24.3 µM [cytotoxic, partial curve]"
same,Potency,[5],"inconclusive: 30.4 µM [cytotoxic, partial curve]"
CC(C)(C)c1ccc(C(=O)CCCN2CCC(OC(c3ccccc3)c3ccccc3)CC2)cc1,Potency,[1],"inconclusive: 26.6 µM [cytotoxic, single point]"
same,Potency,[2],active: 27.6 µM
same,Potency,[4],"inconclusive: 26.6 µM [cytotoxic, single point]"
same,Potency,[10],"inconclusive: 26.6 µM [cytotoxic, single point]"
same,Potency,[7],"inconclusive: 29.9 µM [cytotoxic, single point]"
CN(C)c1ccc2nc3ccc(=[N+](C)C)cc-3sc2c1,Potency,[1],active: 9.35 µM and active: 8.41 µM
same,Potency,[4],active: 2.09 µM and active: 2.66 µM
same,Potency,[10],"inconclusive: 14.8 µM [cytotoxic, partial curve] and active: 10.6 µM"
same,Potency,[8],active: 1.48 µM and active: 2.66 µM
same,Potency,[5],active: 3.41 µM and active: 5.45 µM
same,Potency,[7],"inconclusive: 8.33 µM [cytotoxic, partial curve] and active: 10.6 µM"
same,Potency,[9],"inconclusive: 2.09 µM [cytotoxic, full curve, poor fit]"
C[C@](N)(Cc1ccc(O)cc1)C(=O)O,"activity change, negative = cytotoxic",[1],inconclusive: -63.8% [at 4.84 µM]
same,Potency,[6],active: 0.001 µM
same,Potency,[7],"inconclusive: 0.001 µM [cytotoxic, full curve]"
CC(C)C(=O)Nc1ccc([N+](=O)[O-])c(C(F)(F)F)c1,Potency,[1],"inconclusive: 33.5 µM [cytotoxic, single point]"
same,Potency,[2],"inconclusive: 19.5 µM [cytotoxic, single point] and inconclusive: 344 nM [cytotoxic, full curve]"
same,Potency,[8],"inconclusive: 21.1 µM [cytotoxic, partial curve]"
same,Potency,[9],"inconclusive: 0.526 µM [cytotoxic, full curve]"
same,Potency,[3],"inconclusive: 0.485 µM [cytotoxic, full curve]"
CN1CCN(C2Cc3ccccc3Sc3ccc(Cl)cc32)CC1 (stereo not drawn),Potency,[1],"inconclusive: 33.5 µM [cytotoxic, single point]"
same,Potency,[2],"inconclusive: 21.9 µM [cytotoxic, partial curve]"
same,Potency,[4],"inconclusive: 33.5 µM [cytotoxic, partial curve, poor fit]"
same,Potency,[10],"inconclusive: 21.1 µM [cytotoxic, single point]"
same,Potency,[8],"inconclusive: 26.6 µM [cytotoxic, single point]"
same,Potency,[5],active: 21.7 µM
same,Potency,[7],"inconclusive: 26.6 µM [cytotoxic, single point]"
same,Potency,[9],active: 9.44 µM
same,Potency,[3],"inconclusive: 21.9 µM [cytotoxic, single point]"
c1ccc2sc(SSc3nc4ccccc4s3)nc2c1,Potency,[1],"inconclusive: 14.6 µM [cytotoxic, single point]"
same,Potency,[5],inactive
O=Nc1c(-c2c(O)[nH]c3cc(Br)ccc23)[nH]c2ccccc12,Potency,[1],active: 2.35 µM
same,Potency,[10],"inconclusive: 23.5 µM [cytotoxic, single point]"
same,Potency,[8],active: 14.8 µM
same,Potency,[9],active: 18.7 µM
CCC(=C(CC)c1ccc(O)cc1)c1ccc(O)cc1,Potency,[1],active: 18.7 µM
same,Potency,[8],"inconclusive: 29.6 µM [cytotoxic, single point]"
same,Potency,[5],active: 7.64 µM
same,Potency,[3],"inconclusive: 1.53 µM [cytotoxic, partial curve]"
CN(C)CCCSc1ccccc1NC(=O)/C=C/c1ccccc1,Potency,[1],"inconclusive: 33.5 µM [cytotoxic, single point]"
same,Potency,[10],inactive
same,Potency,[5],inactive
same,Potency,[7],"inconclusive: 21.1 µM [cytotoxic, single point]"
same,Potency,[9],"inconclusive: 21.1 µM [cytotoxic, partial curve]"
same,Potency,[3],"inconclusive: 19.5 µM [cytotoxic, partial curve, poor fit]"
O=C(O)Cc1ccc2c(c1)C(=O)c1ccccc1CO2,Potency,[1],inactive
same,Potency,[9],inactive
CNC(=O)Oc1ccc2c(c1)[C@]1(C)CCN(C)[C@@H]1N2C,Potency,[1],inactive
same,Potency,[4],inactive
same,Potency,[7],inactive
same,Potency,[9],inactive
same,Potency,[3],inactive
O=C(C=CC=Cc1ccc2c(c1)OCO2)N1CCCCC1,Potency,[1],inactive
same,Potency,[8],inactive
same,Potency,[7],inactive
CNC(=O)c1c(I)c(NC(=O)CCCCC(=O)Nc2c(I)c(C(=O)O)c(I)c(C(=O)NC)c2I)c(I)c(C(=O)O)c1I,Potency,[1],inactive
same,Potency,[4],inactive
same,Potency,[5],inactive
COC(=O)/C=C\C(=O)OC,Potency,[1],"inconclusive: 1.06 µM [cytotoxic, full curve, poor fit]"
same,Potency,[5],inactive
